From the supplement of paper PMC4967469
IC50 is the fitted dose that halves viability relative to control wells, and lower means more sensitive; fits outside the tested doses are given as limits. AUC is the area under the same curve over the 256-fold range up to the top dose, as a fraction: 1 means no effect, lower means more sensitive. An inferred top dose is not printed in the source and was worked back from the curve model.

Assays:
SB590885 = compound: CN(C)CCOc1ccc(-c2nc(-c3ccncc3)c(-c3ccc4c(c3)CC/C4=N\O)[nH]2)cc1 [SB590885]; assay: Viability of human cancer cell lines after 72 h of drug (GDSC screen); conditions: top dose 5 µM; top dose inferred
Description: (§1)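 Human cancer cell lines in 384-well plates, medium with 10% serum, drug for 72 h over a 256-fold dose range (nine 2-fold or five 4-fold steps up to the top dose). Adherent lines were fixed and stained with the nucleic acid dye Syto60, suspension lines read with resazurin; signal relative to control wells, capped at 0 and 100%. One two-parameter sigmoid per drug and line, fitted in a mixed model over all curves with the slope shared within a line.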

PD-173074 = compound: CCN(CC)CCCCNc1ncc2cc(-c3cc(OC)cc(OC)c3)c(NC(=O)NC(C)(C)C)nc2n1 [PD-173074]; assay: as above; conditions: top dose 2 µM; top dose inferred
Description: as §1

Cell Line	AUC (SB590885)	IC50 (SB590885)	AUC (PD-173074)	IC50 (PD-173074)
EGI-1 (biliary tract, adherent)	0.96	> 5000 nM	0.963	> 2000 nM
SW48 (large intestine, adherent)	0.987	> 5000 nM	0.976	> 2000 nM
HCC202 (breast, adherent)	0.933	> 5000 nM	0.968	> 2000 nM
OVCAR-8 (ovary, adherent)	0.988	> 5000 nM	0.969	> 2000 nM
NCI-H835 (lung carcinoid, suspension)	0.991	> 5000 nM	0.991	> 2000 nM
EW-7 (Ewing sarcoma, semi-adherent)	0.982	> 5000 nM	0.954	> 2000 nM
MEL-JUSO (melanoma, adherent)	0.984	> 5000 nM	0.984	> 2000 nM
HCC-56 (large intestine, adherent)	0.976	> 5000 nM	0.953	> 2000 nM
HuO9 (osteosarcoma, adherent)	0.951	> 5000 nM	0.887	> 2000 nM
SK-LU-1 (lung adenocarcinoma, adherent)	0.979	> 5000 nM	0.913	> 2000 nM
KMH-2 (thyroid, adherent)	0.934	> 5000 nM	0.987	> 2000 nM
SK-GT-4 (oesophagus, adherent)	0.947	> 5000 nM	0.957	> 2000 nM
NCI-H841 (small cell lung carcinoma, adherent)	0.988	> 5000 nM	0.988	> 2000 nM
PA-1 (ovary, adherent)	0.99	> 5000 nM	0.992	> 2000 nM
Hs939-T (melanoma, adherent)	0.862	4940 nM	0.984	> 2000 nM
SCC-25 (head and neck, adherent)	0.984	> 5000 nM	0.982	> 2000 nM
OVTOKO (ovary, adherent)	0.93	> 5000 nM	0.914	> 2000 nM
BHT-101 (thyroid, adherent)	0.736	1510 nM	0.935	> 2000 nM
AU565 (breast, adherent)	0.966	> 5000 nM	0.984	> 2000 nM
A431 (skin, adherent)	0.936	> 5000 nM	0.988	> 2000 nM
FLO-1 (oesophagus, adherent)	0.973	> 5000 nM	0.958	> 2000 nM
SBC-3 (small cell lung carcinoma, adherent)	0.988	> 5000 nM	0.846	1260 nM
RT4 (bladder, adherent)	0.976	> 5000 nM	0.945	> 2000 nM
NCI-H2066 (small cell lung carcinoma, adherent)	0.98	> 5000 nM	0.98	> 2000 nM
OVMIU (ovary, adherent)	0.944	> 5000 nM	0.962	> 2000 nM

Cell Line	AUC (SB590885)	IC50 (SB590885)	AUC (PD-173074)	IC50 (PD-173074)
OCI-LY7 (B-cell lymphoma, suspension)	0.994	> 5000 nM	0.969	> 2000 nM
HuP-T3 (pancreas, adherent)	0.976	> 5000 nM	0.981	> 2000 nM
MES-SA (uterus, adherent)	0.988	> 5000 nM	0.966	> 2000 nM
HCC1954 (breast, adherent)	0.98	> 5000 nM	0.968	> 2000 nM
RH-41 (rhabdomyosarcoma, adherent)	0.991	> 5000 nM	0.951	> 2000 nM
SW1573 (lung adenocarcinoma, adherent)	0.959	> 5000 nM	0.97	> 2000 nM
CaR-1 (large intestine, adherent)	0.956	> 5000 nM	0.978	> 2000 nM
NCI-H810 (large cell lung carcinoma, adherent)	0.988	> 5000 nM	0.988	> 2000 nM
NCI-H2030 (lung adenocarcinoma, adherent)	0.951	> 5000 nM	0.955	> 2000 nM
EFO-21 (ovary, adherent)	0.979	> 5000 nM	0.98	> 2000 nM
CS1 (bone, adherent)	0.919	> 5000 nM	0.984	> 2000 nM
NCI-H28 (mesothelioma, adherent)	0.978	> 5000 nM	0.978	> 2000 nM
CAL-85-1 (breast, adherent)	0.965	> 5000 nM	0.98	> 2000 nM
SK-HEP-1 (liver, adherent)	0.949	> 5000 nM	0.989	> 2000 nM
EFM-192A (breast, adherent)	0.949	> 5000 nM	0.976	> 2000 nM
JHH-1 (liver, adherent)	0.981	> 5000 nM	0.98	> 2000 nM
SW756 (cervix, adherent)	0.983	> 5000 nM	0.983	> 2000 nM
TT2609-C02 (thyroid, adherent)	0.916	> 5000 nM	0.96	> 2000 nM
OSC-19 (head and neck, adherent)	0.986	> 5000 nM	0.987	> 2000 nM
H290 (mesothelioma, adherent)	0.989	> 5000 nM	0.977	> 2000 nM
NCI-H1563 (lung adenocarcinoma, adherent)	0.985	> 5000 nM	0.98	> 2000 nM
BHY (head and neck, adherent)	0.984	> 5000 nM	0.986	> 2000 nM
CRO-AP2 (B-cell lymphoma, suspension)	0.978	> 5000 nM	0.907	> 2000 nM
Hey (ovary, adherent)	0.857	3720 nM	0.985	> 2000 nM
H2595 (mesothelioma, adherent)	0.933	> 5000 nM	0.959	> 2000 nM
